Inconclusive results and toxic doses are left out. Not every entry of the source has a single result; some have several. This list holds those alone. There may be further records. Values given together are repeats in other runs, samples, wells, individuals or studies.
Test system: BDF1 mice, L1210 leukemia sc, survival T/C
Experiment: NCI In Vivo Anticancer Drug Screen. Data for tumor model L1210 Leukemia (subcutaneous) in B6D2F1 (BDF1) mice
Conditions: endpoint: median survival time, higher = longer survival
Procedure: The antitumor activity of compounds was measured in mice bearing transplantable tumors. Survival or tumor size were measured and the results are expressed as the measurement made in the treated group (T) divided by the measurement made in the vehicle treated control group (C). The tumor model used in this assay is L1210 Leukemia (subcutaneous) in B6D2F1 (BDF1) mice

[1] = dose: 39.0 mg/kg/injection, schedule: Q01DX Z (sc), vehicle: saline

CCCCCCOP(=O)(N1CC1)N1CC1
T/C [1]: 120 % of control, 150 % of control, 160 % of control

C1CN1c1nc(N2CC2)nc(N2CC2)n1
T/C (dose: 1.8 mg/kg/injection, schedule: Q01DX Z (sc), vehicle: saline): 120 % of control and 150 % of control

CC(CN1CC(=O)NC(=O)C1)N1CC(=O)NC(=O)C1 (stereo unspecified)
T/C (dose: 400.0 mg/kg/injection, schedule: Q04DX003 (sc), vehicle: steriod suspending solution): 110 % of control and 175 % of control

O=P1(N(CCCl)CCCl)NCCCO1 (stereo unspecified)
T/C (dose: 180.0 mg/kg/injection, schedule: Q01DX Z (oral), vehicle: saline): 122 % of control and 160 % of control

S=c1nc[nH]c2nc[nH]c12
T/C (dose: 47.0 mg/kg/injection, schedule: Q01DX Z (sc), vehicle: methylcellulose (MC)): 109 % of control and 150 % of control
T/C (dose: 78.0 mg/kg/injection, schedule: Q01DX Z (sc), vehicle: methylcellulose (MC)): 109 % of control and 150 % of control
T/C (dose: 180.0 mg/kg/injection, schedule: Q01DX Z (sc), vehicle: methylcellulose (MC)): 120 % of control and 155 % of control

C=CC(O)CN1CC1 (stereo unspecified)
T/C (dose: 3.0 mg/kg/injection, schedule: Q01DX Z (sc), vehicle: saline): 109 % of control and 160 % of control

O=C(Nc1ccc(C2=NCCN2)cc1)c1ccc(C(=O)Nc2ccc(C3=NCCN3)cc2)c([N+](=O)[O-])c1
T/C [1]: 104 % of control and 200 % of control

O=P(N1CCOCC1)(N1CC1)N1CC1
T/C (dose: 14.0 mg/kg/injection, schedule: Q01DX Z (sc), vehicle: saline): 116 % of control and 150 % of control

Cn1cnc([N+](=O)[O-])c1Sc1nc(N)nc2nc[nH]c12
T/C (dose: 10.0 mg/kg/injection, schedule: Q01DX Z (sc), vehicle: methylcellulose (MC)): 113 % of control and 160 % of control
T/C (dose: 17.0 mg/kg/injection, schedule: Q01DX Z (sc), vehicle: methylcellulose (MC)): 113 % of control and 150 % of control
T/C (dose: 28.0 mg/kg/injection, schedule: Q01DX Z (sc), vehicle: methylcellulose (MC)): 113 % of control and 150 % of control

O=C1CN(CCN2CC(=O)NC(=O)C2)CC(=O)N1
T/C (dose: 50.0 mg/kg/injection, schedule: Q01DX009 (sc), vehicle: steriod suspending solution): 105 % of control and 150 % of control

Nc1nc(=S)c2[nH]cnc2[nH]1
T/C (dose: 2.16 mg/kg/injection, schedule: Q01DX Z (sc), vehicle: methylcellulose (MC)): 113 % of control and 160 % of control

CN(N=O)C(N)=O
T/C [1]: 110 % of control, 113 % of control, 161 % of control

From PubChem BioAssay AID250 (DTP/NCI, 2004)
